First the molecules themselves.
T1: RBFOX1 RRM RbFoxmut (Fox-RRM*) (Homo sapiens, UniProt Q9NWB1 109-208, R118D;E147R;N151S;E152T)
T1 sequence: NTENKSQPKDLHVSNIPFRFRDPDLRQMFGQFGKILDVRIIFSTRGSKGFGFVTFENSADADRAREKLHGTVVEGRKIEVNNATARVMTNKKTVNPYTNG

B1: CUACUGG (DNA:RNA)
RNA: GGGAGACCGGAAUUCAGAUUGUCCCUACUGGUUAAAUCCCGUCGUAGCCACCA
DNA 1: CAATCTGAATTCCGGTCTCCC
DNA 2: TGGTGGCTACGACGGGATT
B2: UGAACUC (DNA:RNA)
RNA: B1 RNA with C25U, U26G, C28A, U29C, G30U, G31C
DNA 1: CAATCTGAATTCCGGTCTCCC
DNA 2: TGGTGGCTACGACGGGATT
B3: UUAGAUA (DNA:RNA)
RNA: B1 RNA with C25U, C28G, U29A, G30U, G31A
DNA 1: CAATCTGAATTCCGGTCTCCC
DNA 2: TGGTGGCTACGACGGGATT
B4: GUAGUCU (DNA:RNA)
RNA: B1 RNA with C25G, C28G, G30C, G31U
DNA 1: CAATCTGAATTCCGGTCTCCC
DNA 2: TGGTGGCTACGACGGGATT
B5: UCUCUAC (DNA:RNA)
RNA: B1 RNA with C25U, U26C, A27U, G30A, G31C
DNA 1: CAATCTGAATTCCGGTCTCCC
DNA 2: TGGTGGCTACGACGGGATT
B6: CCGAUAA (DNA:RNA)
RNA: B1 RNA with U26C, A27G, C28A, G30A, G31A
DNA 1: CAATCTGAATTCCGGTCTCCC
DNA 2: TGGTGGCTACGACGGGATT
B7: UAAUCUU (DNA:RNA)
RNA: B1 RNA with C25U, U26A, C28U, U29C, G30U, G31U
DNA 1: CAATCTGAATTCCGGTCTCCC
DNA 2: TGGTGGCTACGACGGGATT
B8: AUUGAGU (DNA:RNA)
RNA: B1 RNA with C25A, A27U, C28G, U29A, G31U
DNA 1: CAATCTGAATTCCGGTCTCCC
DNA 2: TGGTGGCTACGACGGGATT
B9: CGAACUA (DNA:RNA)
RNA: B1 RNA with U26G, C28A, U29C, G30U, G31A
DNA 1: CAATCTGAATTCCGGTCTCCC
DNA 2: TGGTGGCTACGACGGGATT
B10: UUCUGGU (DNA:RNA)
RNA: B1 RNA with C25U, A27C, C28U, U29G, G31U
DNA 1: CAATCTGAATTCCGGTCTCCC
DNA 2: TGGTGGCTACGACGGGATT
B11: UAUUAAC (DNA:RNA)
RNA: GGGAGACCGGAAUUCAGAUUGUCCUAUUAACUUAAAUCCCGUCGUAGCCACCA
DNA 1: CAATCTGAATTCCGGTCTCCC
DNA 2: TGGTGGCTACGACGGGATT
B12: AAUGAAU (DNA:RNA)
RNA: B11 RNA with U25A, U28G, C31U
DNA 1: CAATCTGAATTCCGGTCTCCC
DNA 2: TGGTGGCTACGACGGGATT
B13: UACCAAG (DNA:RNA)
RNA: B11 RNA with U27C, U28C, C31G
DNA 1: CAATCTGAATTCCGGTCTCCC
DNA 2: TGGTGGCTACGACGGGATT
B14: UAACCAC (DNA:RNA)
RNA: B11 RNA with U27A, U28C, A29C
DNA 1: CAATCTGAATTCCGGTCTCCC
DNA 2: TGGTGGCTACGACGGGATT
B15: CUCAUGU (DNA:RNA)
RNA: B1 RNA with A27C, C28A, G31U
DNA 1: CAATCTGAATTCCGGTCTCCC
DNA 2: TGGTGGCTACGACGGGATT
B16: AGCGCGA (DNA:RNA)
RNA: B1 RNA with C25A, U26G, A27C, C28G, U29C, G31A
DNA 1: CAATCTGAATTCCGGTCTCCC
DNA 2: TGGTGGCTACGACGGGATT
B17: AGGAGCC (DNA:RNA)
RNA: B11 RNA with U25A, A26G, U27G, U28A, A29G, A30C
DNA 1: CAATCTGAATTCCGGTCTCCC
DNA 2: TGGTGGCTACGACGGGATT
B18: CUUUUCC (DNA:RNA)
RNA: B1 RNA with A27U, C28U, G30C, G31C
DNA 1: CAATCTGAATTCCGGTCTCCC
DNA 2: TGGTGGCTACGACGGGATT
B19: UCCUCCU (DNA:RNA)
RNA: B11 RNA with A26C, U27C, A29C, A30C, C31U
DNA 1: CAATCTGAATTCCGGTCTCCC
DNA 2: TGGTGGCTACGACGGGATT
B20: AGAACAC (DNA:RNA)
RNA: B11 RNA with U25A, A26G, U27A, U28A, A29C
DNA 1: CAATCTGAATTCCGGTCTCCC
DNA 2: TGGTGGCTACGACGGGATT

Positions count from the first letter of the chain named. Some of the results follow.

The assay addresses T1, RBFOX1 RRM RbFoxmut (Fox-RRM*). The experiment in a line: EMSA; HiTS-Eq, 1 nM pool, 10 min; buffer printed only for the single-RNA assays: 10 mM Tris pH 7.5, 150 mM NaCl, 3.4 mM EDTA, 0.001% NP-40, 30 C. The following applies: tags: His6 N-terminal (pET28a); label: 5' 32P. In outline: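 Purified RbFox RRM (wild type or mutant) was equilibrated for 10 min in 50 µL with 1 nM of a 5′-radiolabelled pool of RNA with 7 randomized nucleotides, its flanks annealed to DNA oligonucleotides, across increasing protein concentrations. Free RNA was separated by 8% native PAGE, excised, reverse-transcribed, PCR-barcoded and sequenced on an Illumina HiSeq 2500. Relative association constants came from read-count changes of each variant against the control reaction, normalised to the cognate motif.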
A general note: A gel shift assay detects complexes by their altered migration in electrophoresis.
Turning to B1, the binding signal is 0.0791 KA relative to UGCAUGU.
With B2 the figure was 0.0423 KA relative to UGCAUGU; with B3, 0.0995 KA relative to UGCAUGU; with B4, 0.0795 KA relative to UGCAUGU.
With B5 the figure was 0.1 KA relative to UGCAUGU.
In the case of B6, the binding signal was 0.0612 KA relative to UGCAUGU.
Regarding B7, the binding signal was 0.0482 KA relative to UGCAUGU.
As to B8, the binding signal is 0.166 KA relative to UGCAUGU.
As to B9, the binding signal was 0.104 KA relative to UGCAUGU.
B10: the binding signal was 0.0775 KA relative to UGCAUGU.
As to B11, the binding signal is 0.0973 KA relative to UGCAUGU.
Regarding B12, the binding signal is 0.0909 KA relative to UGCAUGU.
With B13 the figure was 0.0709 KA relative to UGCAUGU; with B14, 0.0709 KA relative to UGCAUGU; with B15, 0.143 KA relative to UGCAUGU.
With B16 the figure was 0.0743 KA relative to UGCAUGU; with B17, 0.156 KA relative to UGCAUGU; with B18, 0.0453 KA relative to UGCAUGU.
As for B19, the binding signal was 0.0641 KA relative to UGCAUGU.
For B20, the binding signal is 0.0588 KA relative to UGCAUGU.

The values above are taken from paper PMC9911399, “Two distinct binding modes provide the RNA-binding protein RbFox with extraordinary sequence specificity”.
